Among the data in the supplement of paper PMC6609913 are normalised cell viability values, retold here.

SMILES strings stand for the structures. Where a name gives a salt, the structure may show the parent alone. ± gives the standard deviation of the averaged measurements. In all, about 1,300 compounds were measured (“normalised cell viability”: median about 1, lowest 2% from about 0.14 on). The list shows a part of the results.

This assay concerns V-C8 (BRCA2-deficient hamster cells). Nature of the assay: normalised cell viability (fraction of plate median); higher = more viable cells (less toxic). The note with it: 5 µM. A digest of the protocol: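 In two screens, library drugs at 5 μM were given for 3 days (screen 1) or 6 days (screen 2) to hamster V-C8 cells without BRCA2 and V-C8 cells with BRCA2 restored, seeded 24 h earlier in 96-well plates. A resazurin assay gave the cell viability readout, expressed as modified robust per cent of sample against the plate median, with triplicate wells averaged.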

In the case of `C=C1c2c(Cl)ccc(O)c2C(=O)C2=C(O)[C@]3(O)C(=O)C(C(N)=O)=C(O)[C@@H](N(C)C)[C@@H]3[C@@H](O)[C@H]12.O=C(O)c1cc(S(=O)(=O)O)ccc1O` [Meclocycline sulfosalicylate], the normalised cell viability is 0.934 ± 0.057 (treatment time: 3 days) and 0.862 ± 0.05 (treatment time: 6 days).
In the same order, the values of `CCOC(=O)O[C@]1(C(=O)COC(=O)CC)CC[C@H]2[C@@H]3CCC4=CC(=O)C=C[C@]4(C)[C@H]3[C@@H](O)C[C@@]21C` [Prednicarbate] are 0.835 ± 0.12 and 1.01 ± 0.11.
As to `CC(=O)NCCCS(=O)(=O)O` [Acamprosate calcium], the normalised cell viability came out at 1.09 ± 0.036 (treatment time: 3 days) and 1.07 ± 0.052 (treatment time: 6 days).
Turning to `C[C@H]1c2cccc(O)c2C(=O)C2=C(O)[C@]3(O)C(=O)C(C(N)=O)=C(O)[C@@H](N(C)C)[C@@H]3[C@@H](O)[C@@H]21` [Doxycycline hydrochloride], the normalised cell viability (treatment time: 3 days) was 0.871 ± 0.03 and the normalised cell viability (treatment time: 6 days) came out at 0.887 ± 0.075.
Take `C[C@](N)(Cc1ccc(O)c(O)c1)C(=O)O` [Methyldopa (L,-)]: the normalised cell viability reads like this: (treatment time: 3 days) 1.06 ± 0.034; (treatment time: 6 days) 1.04 ± 0.042.
As for `c1cnc(N2CCN(Cc3ccc4c(c3)OCO4)CC2)nc1` [Piribedil hydrochloride], the normalised cell viability is, setting by setting: (treatment time: 3 days) 1.06 ± 0.062; (treatment time: 6 days) 1.12 ± 0.1.
Molecule `Clc1ccc(C(Cn2ccnc2)OCc2ccsc2Cl)c(Cl)c1` (centres undefined) [Tioconazole] came in with a normalised cell viability (treatment time: 3 days) of 0.97 ± 0.046 and a normalised cell viability (treatment time: 6 days) of 0.966 ± 0.059.
Consider `CCCC1C(=O)N2C(N(C)C)=Nc3ccc(C)cc3N2C1=O` (centres undefined) [Azapropazone], for which the normalised cell viability runs as follows: (treatment time: 3 days) 1.13 ± 0.12; (treatment time: 6 days) 1.01 ± 0.012.
The matching figures for `CCOC(=O)O[C@]1(C(=O)OCCl)CC[C@H]2[C@@H]3CCC4=CC(=O)C=C[C@]4(C)[C@H]3[C@@H](O)C[C@@]21C` [Loteprednol etabonate]: 0.934 ± 0.034 and 0.947 ± 0.039.
As to `Cc1ccc(NC(=O)c2ccc(CN3CCN(C)CC3)cc2)cc1Nc1nccc(-c2cccnc2)n1` [Imatinib], the normalised cell viability by setting is: (treatment time: 3 days) 0.852 ± 0.041; (treatment time: 6 days) 0.851 ± 0.078.
Take `O=C(O)c1cn(C2CC2)c2cc(N3CCNCC3)c(F)cc2c1=O` [Ciprofloxacin hydrochloride hydrate]: the normalised cell viability turned out to be 1.1 ± 0.11 (treatment time: 3 days) and 1.07 ± 0.046 (treatment time: 6 days).
Regarding `COc1ccc(-c2cc(=S)ss2)cc1` [Anethole-trithione], the normalised cell viability came to 0.969 ± 0.013 (treatment time: 3 days) and 1.03 ± 0.056 (treatment time: 6 days).
`C#CCN[C@@H]1CCc2ccccc21` [Rasagiline]: the normalised cell viability by setting is: (treatment time: 3 days) 1.08 ± 0.055; (treatment time: 6 days) 1.06 ± 0.038.
Take `COc1cc(C(=O)NCc2ccc(OCCN(C)C)cc2)cc(OC)c1OC` [Trimethobenzamide hydrochloride]: the normalised cell viability reads like this: (treatment time: 3 days) 0.981 ± 0.016; (treatment time: 6 days) 0.985 ± 0.032.
The matching figures for `CC(C)NCC(O)COc1ccc(CCOCC2CC2)cc1` (centres undefined) [Betaxolol hydrochloride]: 0.1577 ± 0.00096 and 0.136 ± 0.014.
Turning to `CCc1nc(N)nc(N)c1-c1ccc(Cl)cc1` [Pyrimethamine], the normalised cell viability amounted to 0.424 ± 0.0062 (treatment time: 3 days) and 0.393 ± 0.013 (treatment time: 6 days).
As to `CC(=O)[C@@]1(O)CC[C@H]2[C@@H]3C[C@H](C)C4=CC(=O)C=C[C@]4(C)[C@@]3(F)[C@@H](O)C[C@@]21C` [Fluorometholone], the normalised cell viability stood at 0.861 ± 0.029 (treatment time: 3 days) and 0.903 ± 0.044 (treatment time: 6 days).
`C1CCC(C(CC2CCCCN2)C2CCCCC2)CC1` (centres undefined) [Perhexiline maleate] had a normalised cell viability (treatment time: 3 days) of 0.126 ± 0.011 and a normalised cell viability (treatment time: 6 days) of 0.109 ± 0.0083.
The matching figures for `Cn1cnc2c1c(=O)[nH]c(=O)n2C` [Theobromine]: 0.928 ± 0.036 and 1.06 ± 0.051.
The matching figures for `CCN(CC)CCNC(=O)c1cc(Cl)c(N)cc1OC` [Metoclopramide monohydrochloride]: 1.02 ± 0.038 and 0.992 ± 0.045.
As to `CCOc1ccc2ccccc2c1C(=O)N[C@@H]1C(=O)N2[C@@H]1SC(C)(C)[C@@H]2C(=O)O` [Nafcillin sodium salt monohydrate], the normalised cell viability (treatment time: 3 days) stood at 0.999 ± 0.021 and the normalised cell viability (treatment time: 6 days) amounted to 1.03 ± 0.034.
The molecule `CC(C)(CO)C(O)C(=O)NCCCO` (centres undefined) [Panthenol (D)] gave a normalised cell viability (treatment time: 3 days) of 1.06 ± 0.036 and a normalised cell viability (treatment time: 6 days) of 1.02 ± 0.04.
For `CN(C)C/C=C(/c1ccc(Br)cc1)c1cccnc1` [Zimelidine dihydrochloride monohydrate], the normalised cell viability stood at 1.11 ± 0.082 (treatment time: 3 days) and 1.05 ± 0.028 (treatment time: 6 days).
In the case of `C=C1/C(=C\C=C2/CCC[C@]3(C)[C@@H]([C@H](C)CCCC(C)C)CC[C@@H]23)C[C@@H](O)C[C@@H]1O` [Alfacalcidol], the normalised cell viability (treatment time: 3 days) stood at 1.04 ± 0.058 and the normalised cell viability (treatment time: 6 days) was found to be 0.966 ± 0.094.
As to `Cc1ccc2c(c1)c1c3n2CCNC3CCC1` (centres undefined) [Pirlindole mesylate], the normalised cell viability worked out at 0.904 ± 0.084 (treatment time: 3 days) and 0.9725 ± 0.0077 (treatment time: 6 days).
With `CCC[C@@H]1C[C@@H](C(=O)N[C@@H]([C@H]2O[C@H](SC)[C@H](O)[C@@H](O)[C@H]2O)[C@H](C)Cl)N(C)C1` [Clindamycin hydrochloride], the normalised cell viability runs as follows: (treatment time: 3 days) 1.17 ± 0.044; (treatment time: 6 days) 1.09 ± 0.04.
For `O=C(N[C@H](CO)[C@H](O)c1ccc([N+](=O)[O-])cc1)C(Cl)Cl` [Chloramphenicol], the normalised cell viability was 0.748 ± 0.028 (treatment time: 3 days) and 0.741 ± 0.016 (treatment time: 6 days).
`CN(C)CCC=C1c2ccccc2COc2ccccc21` [Doxepin hydrochloride]: the normalised cell viability reads like this: (treatment time: 3 days) 1.04 ± 0.098; (treatment time: 6 days) 1.04 ± 0.024.
In the same order, the values of `CC(C)[N+](C)(CCOC(=O)C1c2ccccc2Oc2ccccc21)C(C)C` [Propantheline bromide] are 1.03 ± 0.012 and 0.901 ± 0.067.
Take `Nc1ccccc1S(N)(=O)=O` [2-Aminobenzenesulfonamide]: the normalised cell viability stood at 1.01 ± 0.054 (treatment time: 3 days) and 1.008 ± 0.0056 (treatment time: 6 days).
Regarding `COc1ccccc1Oc1c(NS(=O)(=O)c2ccc(C(C)(C)C)cc2)nc(-c2ncccn2)nc1OCCO` [Bosentan], the normalised cell viability reads like this: (treatment time: 3 days) 1.13 ± 0.13; (treatment time: 6 days) 1.07 ± 0.046.
In the case of `NS(=O)(=O)c1cc2c(cc1Cl)NC(C(Cl)Cl)NS2(=O)=O` (centres undefined) [Trichlormethiazide], the normalised cell viability reads like this: (treatment time: 3 days) 1.02 ± 0.021; (treatment time: 6 days) 0.974 ± 0.052.
